Among all 52,000 compounds or so, about 4,300 (8.3%) were called active. Cut-off read from the data, not from the text of the source: active = survival mostly below about 52% (no sharp cut-off); inactive = mostly above about 56%. This is one part of the list.

The assay relates to DeltatarO mutant. In words: S. aureus survival, RN4220 and DeltatarO strains – OD600, teichoic acid synthesis inhibitors, primary screen (AID 463173). The conditions noted are these: S. aureus RN4220 wild type/DeltatarO growth, OD600, 18 h, hits give low values, screened at 18.75 µg/mL (by protocol).
As to `NNC(=O)c1ccc2[nH]c3c(c2c1)CCCC3`, the survival is inactive: 84%.

On to `c1ccc(CCN2CNc3nc4ccccc4n3C2)cc1`, for which the survival is inactive: 76%.

On to `Cc1cccc(Cn2cc(S(=O)(=O)c3ccc(Cl)cc3)c(=O)c3cc4c(cc32)OCO4)c1`, for which the survival is inactive: 79%.

As to `CC(=O)c1ccc(NC(=O)c2ccc(NC(=O)CCS(=O)(=O)c3cccs3)cc2)cc1`, the survival was inactive: 69%.

Take `CCn1c(Cc2ccccc2)nnc1SCC(=O)N1CCCCC1C` (stereo unspecified): the survival was inactive: 99%.

In the case of `Cn1c(=O)c2c(SCC(=O)NCC3CCCO3)nc(-c3cccc(F)c3)nc2n(C)c1=O` (stereo unspecified), the survival was inactive: 87%.

With `O=C(c1ccco1)N1CCN(C(=O)C2CCCN(S(=O)(=O)Cc3ccccc3)C2)CC1` (stereo unspecified), the survival was inactive: 85%.

For `CS(=O)(=O)N1CCC(n2c(C(F)(F)F)nc3cccnc32)CC1`, the survival is active: 47%.

With `Cc1cccc(OCCSc2nc3ccc(NC(=O)c4cccs4)cc3s2)c1`, the survival is inactive: 61%.

For the molecule `Cc1cccc(C)c1Nc1c(-c2cccs2)nc2ncccn12`, the survival is inactive: 76%.

On to `Cc1cc(Nc2ccc(C(=O)O)cc2)nc(N)n1`, for which the survival was inactive: 94%.

Consider `CCCCC(=O)Nc1cc2nn(-c3ccc(OCC)cc3)nc2cc1C`, for which the survival is inactive: 70%.

On to `Cc1oc(CC(C)C)cc1C(=O)O`, for which the survival is inactive: 104%.

Consider `CCS(=O)(=O)N1CCC(NC(=O)c2ccccc2Cl)CC1`, for which the survival was inactive: 77%.

Turning to `Cc1ccc(Cl)cc1N1CCN(CCCNC(=O)c2nnc(Cc3cccc(Cl)c3)o2)CC1`, the survival is active: 25%.

With `O=C(Nc1cccc(F)c1)c1cccc2c1C(=O)N(C1CCCCC1)C2`, the survival was inactive: 71%.

For `CCC(=O)N1CCCc2cc(S(=O)(=O)N3CCC(C(=O)Nc4ccccc4CC)CC3)ccc21`, the survival was inactive: 129%.

In the case of `Cc1ccccc1Nc1cc(C(=O)NCCc2ccc(Cl)cc2)c2ccccc2n1`, the survival is inactive: 76%.

Turning to `CCCC(=O)Nc1c2c(nc3ccccc13)N(c1ccccc1)CC2`, the survival was inactive: 81%.

As for `Cn1c(O)c(C=NCC2CCN(C(=S)Nc3ccccc3)CC2)c(=O)n(C)c1=O`, the survival is inactive: 98%.

Turning to `COC(=O)Cc1c(C)c2ccc3c(c2oc1=O)CN(Cc1ccccc1OC)CO3`, the survival was inactive: 111%.

With `CC(CNC(=O)Cn1c(-c2cccs2)cc2ccccc21)c1ccccc1` (stereo unspecified), the survival is inactive: 100%.

As to `CCC(=O)N1CCc2cc(Br)cc(S(=O)(=O)N3CCCC(C(=O)NCc4ccc(OC)cc4)C3)c21` (stereo unspecified), the survival was inactive: 93%.

`CCc1ccccc1NC(=O)CSc1ncc(S(=O)(=O)c2ccccc2)c(=O)[nH]1`: the survival was inactive: 93%.

On to `CCc1ccc(N(C(=O)c2ccco2)C(C(=O)NC2CCCC2)c2ccncc2)cc1` (stereo unspecified), for which the survival is inactive: 94%.

On to `Cc1cccc(OCC(=O)Nc2ccc(Cl)c(-c3nc4ccccc4[nH]3)c2)c1`, for which the survival was active: 38%.

Consider `O=S(=O)(c1ccc(F)cc1)n1cccc1`, for which the survival is inactive: 84%.

Regarding `CCCOc1ccc(NC(=O)CC2C(=O)N(c3ccc(Cl)cc3)C(=O)N2CCc2ccncc2)cc1` (stereo unspecified), the survival is inactive: 106%.

For the molecule `CC1=C(c2ccc(C)c(C)c2)S(=O)(=O)N=C1N1CCC(C(=O)Nc2cccc(F)c2)CC1`, the survival was inactive: 79%.

For the molecule `COc1cccc(NC(=O)CSc2nnc(-c3cccs3)o2)c1`, the survival is inactive: 52%.

Consider `COc1ccccc1NC(=O)Cn1c(=O)n(-c2cccc(Cl)c2)c(=O)c2c1c1cc(C)ccc1n2C`, for which the survival was inactive: 77%.

For `CN1CCc2nc3sc(C(=O)Nc4cccc(C#N)c4)c(N)c3cc2C1`, the survival was active: 54%.

With `CC(C)C(c1nnnn1CCc1ccccc1)N1CCCC1` (stereo unspecified), the survival was inactive: 84%.

Regarding `Cc1cc(C)cc(Nc2nnc(-n3nc(C)cc3C)c3ccccc23)c1`, the survival was inactive: 80%.

Turning to `COc1ccc(NC(=O)CN2C(=O)COc3ccc(S(=O)(=O)N4CCCCC4)cc32)cc1Cl`, the survival is inactive: 83%.

`O=C(CN1C(=O)CSc2ccc(S(=O)(=O)N3CCCC3)cc21)NCc1ccc(Cl)cc1`: the survival is inactive: 65%.

Take `COc1ccc(NC(=O)c2oc3ccccc3c2NC(=O)Cc2cccs2)cc1`: the survival is inactive: 96%.

As to `CCOC(=O)c1cnc2ccc(C)cc2c1NCCc1ccc(OC)c(OC)c1`, the survival is inactive: 136%.

With `Cc1ccc(NC(=O)c2sc3nc(-c4ccc(F)cc4)ccc3c2N)cc1F`, the survival was inactive: 60%.

For the molecule `CC1CCCCC1NC(=O)CN1CCC(NC(=O)c2cccc(F)c2)CC1` (stereo unspecified), the survival is inactive: 85%.

On to `COc1ccc(C)cc1NC(=O)N1CCN(c2cc(-c3noc(C)n3)ccc2C)CC1`, for which the survival was inactive: 88%.

As to `O=S(=O)(Cc1ccccc1)N1CCN(Cc2ccco2)CC1`, the survival is inactive: 68%.

On to `CCSC(=C(C#N)C#N)c1cc2c([nH]1)CCCC2`, for which the survival was active: 45%.

For the molecule `O=C(CC1C(=O)N(c2ccccc2)C(=O)N1Cc1ccc2c(c1)OCO2)Nc1ccccc1` (stereo unspecified), the survival is inactive: 87%.

As for `Cc1c(C)n(Cc2ccc(F)cc2)c2ccc(C(=O)Nc3ccc(Cl)cc3)cc12`, the survival was inactive: 76%.

Turning to `Cc1ccc(-c2cc3c(n2-c2ccccc2F)CC(C)(C)CC3=O)cc1`, the survival was inactive: 101%.

Consider `C=C(C)c1nc2cc(OC)c(OC)cc2c(=O)o1`, for which the survival was inactive: 94%.

On to `O=C1CC(c2nnc(Cc3ccccc3Cl)o2)CN1c1ccccc1` (stereo unspecified), for which the survival was inactive: 131%.

In the case of `CCOC(=O)c1ccc(CN(Cc2ccccc2C)S(=O)(=O)c2ccc(F)c(C(=O)Nc3cccc(OC)c3)c2)cc1`, the survival was inactive: 75%.

Regarding `C[n+]1ccccc1C(O)Cc1ccncc1` (stereo unspecified), the survival was inactive: 94%.

`Cc1ccc(C)c(Cn2c(=O)n(CCCCCC(=O)NCc3ccc4c(c3)OCO4)c(=O)c3sccc32)c1`: the survival was inactive: 98%.

For `CC(=O)c1ccc(NC(=O)CCCc2nc(-c3cccc(C)c3)no2)cc1`, the survival is inactive: 69%.

In the case of `O=C(Cn1cc(C(=O)C2CC2)c2ccccc21)Nc1ccc(Br)cc1`, the survival was inactive: 95%.

`COc1ccccc1N1CCN(c2ccc(-c3nc(-c4ccccc4)no3)cc2[N+](=O)[O-])CC1`: the survival is inactive: 77%.

`CCC1CCCCN1CCCNC(=O)c1ccc2c(c1)N(Cc1ccc(Cl)cc1)C(=O)c1ccccc1S2(=O)=O` (stereo unspecified): the survival is inactive: 120%.

For the molecule `CCN1C(=O)/C(=C2/Sc3ccc(OC)cc3N2CC)SC1=Nc1ccc2c(c1)OCCO2`, the survival was inactive: 91%.

For the molecule `COc1ccc(N2CCN(C(=O)CN(C)S(=O)(=O)c3cccs3)CC2)cc1`, the survival is inactive: 110%.

As for `COc1cccc(Nc2sc(C(=O)c3ccc(F)cc3)c(N)c2C(=O)NCc2ccc(C)cc2)c1`, the survival was inactive: 91%.

Regarding `COc1ccc(Cn2ccnc2SCC(=O)Nc2cc(C(F)(F)F)ccc2Cl)cc1`, the survival is inactive: 81%.

Regarding `CCN(CC)C(=O)Cn1c(=O)cc(C)c2c(C)nn(C)c21`, the survival was inactive: 124%.

As to `CCOC(=O)c1ccccc1NC(=O)c1sc2ccccc2c1Cl`, the survival is active: 36%.

As for `COc1ccc(-c2cn3nc(N4CCCC(C(=O)NCc5ccccc5C)C4)sc3n2)cc1` (stereo unspecified), the survival is inactive: 69%.

Take `Cc1ccccc1-n1c(=O)c2c3c(sc2n2cnnc12)CCCC3`: the survival was inactive: 72%.

As to `COc1ccc(CNC(=O)C2CCN(c3nnc(-n4cccc4CNc4ccc(C)cc4)s3)CC2)c(OC)c1`, the survival was inactive: 70%.

For the molecule `Cc1ccc(S(=O)(=O)c2nc(-c3cccc(C)c3)oc2N2CCCCC2)cc1`, the survival was active: 6%.

Take `O=S(=O)(c1ccc(F)cc1)N1CCC(n2c(C(F)(F)F)nc3cccnc32)CC1`: the survival is inactive: 87%.

Regarding `COC(=O)c1ccc2c(c1)N(CC(=O)Nc1cccc(C(F)(F)F)c1)C(=O)c1ccccc1S2`, the survival was inactive: 91%.

For the molecule `O=C(CSc1nc2c([nH]c3ccccc32)c(=O)n1-c1ccccc1F)Nc1ccccc1C(F)(F)F`, the survival is inactive: 67%.

Turning to `CC1CCC[S+](c2cc(O)ccc2O)C1` (stereo unspecified), the survival was inactive: 66%.

For `O=C(CN(CCc1ccccc1)S(=O)(=O)c1ccccc1)NCc1ccc(Cl)cc1`, the survival was inactive: 62%.

As to `Cc1ccc(Cl)cc1N1CCN(C(=O)c2cc(S(=O)(=O)N3CCCCCC3)cn2C)CC1`, the survival was inactive: 76%.

Consider `Cc1cc(Cl)ccc1Nc1ncnc2onc(C)c12`, for which the survival was inactive: 68%.

For `O=C(Nc1ccccc1Cl)C1CCN(c2nc3ccccc3[nH]2)CC1`, the survival was inactive: 102%.

Consider `COc1cccc(NC(=O)CSCn2nnc3c(=O)[nH]c(Cc4ccc(F)cc4)nc32)c1`, for which the survival was inactive: 61%.

Regarding `Nc1cc(=O)[nH]c(SCC(=O)N(c2ccccc2)c2ccccc2)n1`, the survival is inactive: 87%.

As for `Fc1ccccc1OCc1nc(-c2ccc(-n3cccc3)cc2)no1`, the survival is inactive: 75%.

Take `Oc1c(CN2CCOCC2)cc(CN2CCOCC2)cc1CN1CCOCC1`: the survival is inactive: 98%.

As for `CCOC(=O)c1cc(-c2ccccc2)n(CCC(=O)Nc2ccc(C)cc2Cl)c1C`, the survival was inactive: 89%.

In the case of `Cc1ccc2c(c1)C(=O)C(=O)N2Cc1ccc(OC(C)C)cc1`, the survival is inactive: 120%.

For the molecule `COc1ccc(CNc2nccs2)cc1OC`, the survival was inactive: 103%.

As to `COc1ccc(OC)c(S(=O)(=O)N2Cc3ccccc3CC2C(=O)Nc2ccc(Cl)cc2)c1` (stereo unspecified), the survival is inactive: 57%.

`CCOc1ccc(-c2nn(-c3ccccc3)cc2C2NC(=O)NC(C)=C2C(=O)OC(C)C)cc1C` (stereo unspecified): the survival is inactive: 64%.

As for `Cc1cc(C)cc(NC(=O)CCS(=O)(=O)c2ccc3nc(C)sc3c2)c1`, the survival was inactive: 50%.

Take `O=C1C(c2ccc(F)cc2)N(Cc2ccccc2Cl)C(=O)CN1C1CCCCC1` (stereo unspecified): the survival was inactive: 81%.

Take `Cc1ccc(C(=O)N2CCC(N3CCN(Cc4ccc(F)cc4)C(=O)C3=O)CC2)cc1`: the survival is inactive: 71%.

`Cc1ccc(-n2nc(CO)c(C(=O)NCCCCc3ccccc3)n2)cc1`: the survival is inactive: 102%.

`CC(C)(C)n1nnnc1C(c1ccccn1)N1CCN(c2cccc(C(F)(F)F)c2)CC1` (stereo unspecified): the survival is inactive: 90%.

Turning to `Cc1ccc2c(c1)CC(C)N2S(=O)(=O)c1nnc(NC(=O)c2ccccc2F)s1` (stereo unspecified), the survival was active: 9%.

For `CC(C)c1ccccc1NC(=O)CN(c1ccccc1)S(=O)(=O)N(C)C`, the survival is inactive: 81%.

On to `CCOC(=O)c1ccc(NC(=O)C2CC(=O)N3CCCN=C3S2)cc1` (stereo unspecified), for which the survival was inactive: 94%.

Take `O=C(NCCCN1CCN(c2ccc(F)cc2)CC1)c1sc2ncccc2c1-n1cccc1`: the survival is active: 37%.
